This note sets out measurements from article PMC12136788.

The other results are listed elsewhere or left out.

First the molecules themselves.
T1: UNK ZnF1-3 (human, UniProt Q9C0B0 31-174)
T1 sequence: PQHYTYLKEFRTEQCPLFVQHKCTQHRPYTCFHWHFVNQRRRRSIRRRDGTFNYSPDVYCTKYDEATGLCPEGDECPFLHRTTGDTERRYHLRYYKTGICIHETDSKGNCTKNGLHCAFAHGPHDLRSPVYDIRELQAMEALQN

B1: 32695338_32696170_6644_CDS_ENSG00000115760_ENST00000421745|human|control|control (ssRNA)
RNA: GGGAGUUCUACAGUCCGACGAUCUGCUGCUUCAUCUUCAACAGUUGCCACAUAAUCCAGCAACCUGGACACCAGCAUAACAACCCAACUGAUCAUGGGAAUAUCUAGUACUCCUUCUGUCCUCCUAUGCAUGGGUAACUGUGGCAACAGAGGAUUGAGCAUCA
B2: 48778067_48784991_354_3pUTR_ENSG00000154945_ENST00000285243|human|control|control (ssRNA)
RNA: GGGAGUUCUACAGUCCGACGAUCUAAACAAGUCCAGCCGUUGACCUCAUUUUGGGAGUUCACAUCCACCCCGCUCUCCACCAGUUUCUGCACCUCCCGAAUGUCCCCUAAGGCCGCGGCCUCCCGCAGCCUCUCCUGCUGCUCCAACAGAGGAUUGAGCAUCA
B3: chr8:28048094:28048095:+_ENSG00000134014_ENST00000521015|hu_hu|FALSE|FALSE (ssRNA)
RNA: GGGAGUUCUACAGUCCGACGAUCUUGCGCCACUGCACUCCAGCCUGGGUGACACAGCGAGACUUUCUCAGAAAAAAAAAAAAAAUUGCAAGUAAUGGCUUCUGUGGAAGCAAAUCUUGAUUUAGGGGCACACAACCUGAGACUCAACAGAGGAUUGAGCAUCA
B4: chr1:109605286:109605287:-_ENSG00000197780_ENST00000461096|hu_mus|hu_hu_hu_mus_True|8_108 (ssRNA)
RNA: GGGAGUUCUACAGUCCGACGAUCAAGAACAAUAACAACAUUCAGUAACCUCUUUAAAUGCAAUUAUCCUUAUUAUAAGCUAAGCAGAAUAAUAAUUUAAUACCGUAAGUGAACUACACACAAAGCCGUGUAUUCAGAAAUGGUCAACAGAGGAUUGAGCAUCA
B5: chr18:12984129:12984130:+_ENSG00000085415_ENST00000262124|hu_hu|FALSE|FALSE (ssRNA)
RNA: GGGAGUUCUACAGUCCGACGAUCCUUUCUGCCAGCAGAAGAUCCAUUUAAUGAAUUCUGAAGACUUGGAAUAGUUGAACCUAGGGAAGGAUUUGAGGUUCCCUGCUGAGAACUCCCAUUGACUGGGCUCCCAUUACCUUUCAACAACAGAGGAUUGAGCAUCA
B6: chr14:66974463:66974464:+_ENSMUSG00000022044_ENSMUST00000074523|mus_hu|mus_mus_mus_hu_False|8_18 (ssRNA)
RNA: GGGAGUUCUACAGUCCGACGAUCUUGUAGGACGACUUAUUCAGGGGAUCGGCCAGGAAGCAGGAGCAGAACAAGGACACCAGCGGGAGCUCCUUCAUCUUCUCUUUGUAGGCAGCAAGAGUCAUGUUGGCUGGAAUUGGUGGCCAACAGAGGAUUGAGCAUCA
B7: chr3:9412954:9412955:+_ENSG00000134077_ENST00000452837|hu_mus|hu_hu_hu_mus_False|18_58 (ssRNA)
RNA: GGGAGUUCUACAGUCCGACGAUCGGUUGAUAUCUCUUCUUUGAUGGCUGGAUUUUCAUAAUAGUCCAAGAUAUGUGAAUCUAAAGCGCUGCUGGCAUGCUUUUUCUUACCAUCUUUCUGAUCGAUUUUGUCUCCUUGUCCACACAACAGAGGAUUGAGCAUCA
B8: chr3:101264221:101264222:+_ENSMUSG00000042035_ENSMUST00000043983|mus_mus|FALSE|FALSE (ssRNA)
RNA: GGGAGUUCUACAGUCCGACGAUCAGAUUGGCGAGUAGAUGCGGCACCUGGAGCUACGCACUAAGUUACCAAAACCAAAAACUAGGAACCUAGGAUGUUGGCAUCAUGACACCUGGGUGUGAUCAGCUAACCAGGGCUGCCGCCCAACAGAGGAUUGAGCAUCA
B9: chr4:95585729:95585730:+_ENSG00000163110_ENST00000317968|hu_hu|FALSE|FALSE (ssRNA)
RNA: GGGAGUUCUACAGUCCGACGAUCGAUUACAGGCGUGAGCCACCGCGCUCAGCCUACAAGCAAUUUUUUAAAAACUGACACCUAUUACUGAUAAAAUUCUCUGUUUAAAAUCCUAUUUACUAUUUUAAAGAUAAGUAUUAGUUUCAACAGAGGAUUGAGCAUCA
B10: chr11:23185130:23185131:+_ENSMUSG00000020290_ENSMUST00000020538|mus_mus|motif|central (ssRNA)
RNA: GGGAGUUCUACAGUCCGACGAUCGAACGGCAUUACUUCUCCAACUUGAACCUGAACAAAAUGCCUACGGCAUUUUUGAGCGGUUUUAAUAAAUGUGUCACAAGCCAUAUCCUGGACUCCAUCAUGGGUCUCAUGCAUGAAUUCCAACAGAGGAUUGAGCAUCA
B11: chr16:94690093:94690094:+_ENSMUSG00000040785_ENSMUST00000117648|mus_hu|mus_mus_mus_hu_True|8_18 (ssRNA)
RNA: GGGAGUUCUACAGUCCGACGAUCGGGCUGGGAUGACGGACACACAGCCUCGAUUCCAGGGGGAAAAAGUCUUAGUCGAUACUAAUUAAAAAGUGUUAAUGAUUUUUGAAAAUCAGAUGUAGAUUAAUUGAAUCAUAAAGCAAACAACAGAGGAUUGAGCAUCA
B12: chr2:135883765:135883766:+_ENSG00000115839_ENST00000442034|hu_hu|FALSE|FALSE (ssRNA)
RNA: GGGAGUUCUACAGUCCGACGAUCAGAAUAAACAUCAUUAUCCACAAUGAUCCCUUCGGUCAGAUGAGGCCAUGUAGUAGCUAAAUGGAGUUCACUAAUAGGAUCUUCGCAGGCACCAAAUGGUAACUUGCCAAACUCCAAGCCCAACAGAGGAUUGAGCAUCA
B13: chr7:149068622:149068623:-_ENSMUSG00000025139_ENSMUST00000001950|mus_hu|mus_mus_mus_hu_False|38_38 (ssRNA)
RNA: GGGAGUUCUACAGUCCGACGAUCGUGAGGCCUCUGAGUGUGGCUUGUGGUCUGUCCUGGGUUAGAGUUGUUAAUAUCACGGAACAUACCAUCUAGAGAGGUUCUGCCCCGCCUGACACCUUCAUUCCCAAUGGAGAAGAAAUCCAACAGAGGAUUGAGCAUCA
B14: chr2:42509997:42509998:+_ENSG00000143924_ENST00000318522|hu_mus|hu_hu_hu_mus_True|48_48 (ssRNA)
RNA: GGGAGUUCUACAGUCCGACGAUCUCGCUGAGUCCUCUCCUCAUAAUUAAACAGGACUACCACUGAGGCGAUAAAAUAAACUAUCUCCCCGGUCGGAAGCAGGUAUACAUUCGCUCUACAGUCCUUUCCUCGAUAACCGUAUACCAACAGAGGAUUGAGCAUCA

The test concerns the target T1, UNK ZnF1-3. The experiment in a line: nsRBNS (natural sequence RNA bind-n-seq); RBNS binding buffer (assumed for nsRBNS): 25 mM Tris pH 7.5, 150 mM KCl, 3 mM MgCl2, 0.01% Triton X-100, 500 ug/ml BSA, 20 U/ml SUPERase-In, 4 C; UNK is unkempt and MSI1 is Musashi-1; names of the RNAs are library labels; protein concentration not given here; high values mean tight binding.
Take B1: the binding signal worked out at 0.686 enrichment R. Molecule B2 came in with a binding signal of 0.967 enrichment R. To B3 belongs 1.62 enrichment R.

As for B4, the binding signal came to 0.741 enrichment R. Molecule B5 showed a binding signal of 0.75 enrichment R.

B6 yielded a binding signal of 2.2 enrichment R.

Consider B7, for which the binding signal amounted to 0.388 enrichment R. To B8 belongs 1.18 enrichment R; to B9, 0.896 enrichment R; to B10, 0.919 enrichment R.

B11 showed a binding signal of 0.759 enrichment R. To B12 belongs 1.08 enrichment R; to B13, 0.779 enrichment R.

On to B14, for which the binding signal is 1.19 enrichment R.
